This passage reports binding result and Ka results from patent US9046519 (RSR, dated 2015).

Where two headings read alike, the source gives them in different places.

Holding throughout (assay): Scatchard, 125I-ligand, solubilised TSHR on tubes
Test [1] has as its target T1, porcine TSH (RSR Ltd, 70 units per mg) (porcine, UniProt P01219 in part; P01224 in part). As to the method:
(§1) Firstly, dilution profiles of each TSHR preparation were set up. In these experiments, plastic tubes (Maxisorp Star; NUNC) were coated overnight at 4° C. with 200 µL of a mouse monoclonal antibody to the TSHR C-terminus at 10 µg/mL in coating buffer (0.1 mmol/L Na_2CO$_3$ pH 9.2). After washing and post-coating (10 mg/mL of BSA in water) the tubes were washed with assay buffer (10 mmol/L Tris-HCl pH 7.8, 50 mmol/L NaCl and 1 mg/mL BSA) containing 0.1% Triton X-100. In the next step, 200 µL of solubilized wild type or mutated TSHR preparations were added to the tubes and incubated overnight at 4 C. […] After aspiration of the solutions, the tubes were washed and counted in a gamma counter.

The target of test [2] is T1, porcine TSH (RSR Ltd, 70 units per mg). As for the experimental part:
as §1
The source holds these as a separate data set.

Test [3] shares this target. This is another data set of the same source.

B1: TSHR Arg255 to Asp (receptor)
chain: not shown
notes: whole, on cells; as m1; also called TSHR with Arg255 mutated to Asp; Arg255 Asp mutation
B1: the binding result in test [1] is recorded as “no binding”.

B2: TSHR Lys129 to Ala (receptor)
chain: not shown
notes: whole, on cells; as m1
Molecule B2 yielded a Ka in test [1] of 2.2e+09 M⁻¹.

B3: TSHR Glu157 to Ala (receptor)
chain: not shown
notes: whole, on cells; as m1; also called Glu157 mutated to Ala
As to B3, the binding result in test [2] is reported as “no binding”.

B4: TSHR Asp203 to Ala (receptor)
chain: not shown
notes: whole, on cells; as m1; also called Asp203 mutated to Ala
B4: the Ka in test [2] was 1.9e+09 M⁻¹; in test [1] it was 2.2e+09 M⁻¹.

B5: TSHR Asp232 to Ala and Arg255 to Ala (receptor)
chain: not shown
notes: whole, on cells; as m1
On to B5, for which, in test [3], the binding result is recorded as “no binding”.

B6: TSHR Glu178 to Ala (receptor)
chain: not shown
notes: whole, on cells; as m1; also called Glu178 mutated to Ala
For B6, the Ka was 9e+08 M⁻¹ in test [2] and 1e+09 M⁻¹ in test [1].

B7: TSHR Lys250 to Ala (receptor)
chain: not shown
notes: whole, on cells; as m1
As to B7, the binding result in test [1] is “no binding”.

B8: TSHR Arg255 to Ala and Trp258 to Ala (receptor)
chain: not shown
notes: whole, on cells; as m1
In the case of B8, the binding result in test [1] was “no binding”.

B9: TSHR Arg255 to Ala and Lys183 to Ala (receptor)
chain: not shown
notes: whole, on cells; as m1
With B9, in test [3], the binding result is given as “no binding”.

B10: TSHR Arg255 to Ala and Tyr185 to Ala (receptor)
chain: not shown
notes: whole, on cells; as m1
For B10, in test [3], the binding result is on record as “no binding”.

B11: TSHR Ser281 to Ala (receptor)
chain: not shown
notes: whole, on cells; as m1; also called Ser281 mutated to Ala
For B11, the Ka in test [2] and in test [1] was 3.4e+09 M⁻¹ each time.

B12: TSHR Tyr185 to Ala (receptor)
chain: not shown
notes: whole, on cells; as m1
In the case of B12, the Ka in test [1] was 3.4e+09 M⁻¹.

B13: TSHR Lys209 to Ala (receptor)
chain: not shown
notes: whole, on cells; as m1
On to B13, for which, in test [1], the binding result is “no binding”.

B14: TSHR Tyr206 to Ala (receptor)
chain: not shown
notes: whole, on cells; as m1
As for B14, the binding result in test [1] is reported as “no binding”.

B15: TSHR Arg255 to Ala (receptor)
chain: not shown
notes: whole, on cells; as m1; also called Arg255 mutated to Ala
For B15, the Ka turned out to be 1.9e+09 M⁻¹ in test [2] and 2.3e+09 M⁻¹ in test [1].

B16: TSHR Arg274 to Ala (receptor)
chain: not shown
notes: whole, on cells; as m1
B16: the binding result in test [1] is given as “no binding”.

B17: TSHR Asp232 to Ala and Trp258 to Ala (receptor)
chain: not shown
notes: whole, on cells; as m1
In the case of B17, the binding result in test [3] is recorded as “no binding”.

B18: TSHR Trp258 to Ala and Lys183 to Ala (receptor)
chain: not shown
notes: whole, on cells; as m1
As for B18, the binding result in test [3] was “no binding”.

B19: TSHR Phe130 to Ala (receptor)
chain: not shown
notes: whole, on cells; as m1
In test [1], B19 showed a Ka of 2.4e+09 M⁻¹.

B20: TSHR Glu157 to Ala and Asp203 to Ala (receptor)
chain: not shown
notes: whole, on cells; as m1
Regarding B20, in test [3], the binding result is “no binding”.

B21: TSHR Arg80 to Asp (receptor)
chain: not shown
notes: whole, on cells; as m1
B21 gave a Ka in test [1] of 2.8e+09 M⁻¹.

B22: TSHR Asp276 to Ala (receptor)
chain: not shown
notes: whole, on cells; as m1; also called Asp276 mutated to Ala
Take B22: the Ka was determined as 3.4e+09 M⁻¹ in test [2] and 5.5e+09 M⁻¹ in test [1].

B23: TSHR Phe134 to Ala (receptor)
chain: not shown
notes: whole, on cells; as m1
B23: the Ka in test [1] is 2.1e+09 M⁻¹.

B24: TSHR Asp232 to Arg and Arg255 to Asp (receptor)
chain: not shown
notes: whole, on cells; as m1
On to B24, for which the binding result in test [3] is on record as “no binding”.

B25: TSHR Tyr279 to Ala (receptor)
chain: not shown
notes: whole, on cells; as m1
Regarding B25, the binding result in test [1] is recorded as “no binding”.

B26: TSHR Asp43 to Ala (receptor)
chain: not shown
notes: whole, on cells; as m1; also called Asp43 mutated to Ala
B26: the Ka was determined as 3.1e+09 M⁻¹ in test [2] and 3.4e+09 M⁻¹ in test [1].

B27: TSHR Trp258 to Ala (receptor)
chain: not shown
notes: whole, on cells; as m1; also called Trp258 mutated to Ala
Turning to B27, the binding result in test [2] is listed as “no binding”.

B28: TSHR Ile60 to Ala (receptor)
chain: not shown
notes: whole, on cells; as m1
In the case of B28, the Ka in test [1] amounted to 5.1e+09 M⁻¹.

B29: TSHR Lys129 to Asp (receptor)
chain: not shown
notes: whole, on cells; as m1
Take B29: the binding result in test [1] was “no binding”.

B30: TSHR Glu251 to Ala (receptor)
chain: not shown
notes: whole, on cells; as m1
B30 registered a Ka in test [1] of 2e+09 M⁻¹.

B31: TSHR Lys183 to Ala (receptor)
chain: not shown
notes: whole, on cells; as m1
In test [1], B31 yielded a Ka of 1.6e+10 M⁻¹.

B32: TSHR Lys58 to Ala (receptor)
chain: not shown
notes: whole, on cells; as m1
B32 returned a Ka in test [1] of 5.9e+09 M⁻¹.

B33: TSHR Tyr185 to Ala and Lys183 to Ala (receptor)
chain: not shown
notes: whole, on cells; as m1
In test [3], B33 came in with a Ka of 1.39e+10 M⁻¹.

B34: TSHR Asp232 to Arg (receptor)
chain: not shown
notes: whole, on cells; as m1
As to B34, the binding result in test [1] is given as “no binding”.

B35: TSHR Glu107 to Arg (receptor)
chain: not shown
notes: whole, on cells; as m1
With B35, in test [1], the binding result was “no binding”.

B36: TSHR Asp160 to Ala (receptor)
chain: not shown
notes: whole, on cells; as m1
In the case of B36, the binding result in test [1] is on record as “no binding”.

B37: TSHR Arg109 to Ala (receptor)
chain: not shown
notes: whole, on cells; as m1
For B37, the Ka in test [1] is 1.1e+09 M⁻¹.

B38: TSHR Glu178 to Ala and Asp203 to Ala (receptor)
chain: not shown
notes: whole, on cells; as m1
In the case of B38, the binding result in test [3] is listed as “no binding”.

B39: TSHR Glu61 to Ala (receptor)
chain: not shown
notes: whole, on cells; as m1; also called Glu61 mutated to Ala
With B39, the values for the Ka in test [2] and in test [1] were 2.7e+09 M⁻¹ and 2.4e+09 M⁻¹, respectively.

B40: TSHR Arg109 to Asp (receptor)
chain: not shown
notes: whole, on cells; as m1
With B40, the binding result in test [1] is reported as “no binding”.

B41: TSHR Arg80 to Ala (receptor)
chain: not shown
notes: whole, on cells; as m1
B41 came in with a Ka in test [1] of 4.2e+09 M⁻¹.

B42: TSHR Lys183 to Asp (receptor)
chain: not shown
notes: whole, on cells; as m1
Regarding B42, the binding result in test [1] is on record as “no binding”.

B43: TSHR Glu107 to Ala (receptor)
chain: not shown
notes: whole, on cells; as m1
As for B43, the Ka in test [1] was found to be 3.7e+09 M⁻¹.

B44: TSHR Tyr82 to Ala (receptor)
chain: not shown
notes: whole, on cells; as m1
For B44, the Ka in test [1] is 4e+09 M⁻¹.

B45: TSHR Thr257 to Ala (receptor)
chain: not shown
notes: whole, on cells; as m1
For the molecule B45, the binding result in test [1] is recorded as “no binding”.

B46: TSHR Asp232 to Ala (receptor)
chain: not shown
notes: whole, on cells; as m1; also called Asp232 mutated to Ala
Consider B46, for which the binding result in test [2] is given as “no binding”.

B47: TSHR Trp258 to Ala and Tyr185 to Ala (receptor)
chain: not shown
notes: whole, on cells; as m1
B47: the binding result in test [3] is reported as “no binding”.
